About 14,000 (4.5%) of roughly 310,000 compounds showed an effect of 50% or more. Effects have a minus sign here. Some of the results follow.
Each compound was assayed against human ether-à-go-go-related gene (hERG) potassium channel (human, UniProt Q12809) (assay: primary screen, population patch clamp on CHO cells stably expressing hERG).
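Further: peak tail current of the secondary pulse compared with the same well before compound.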

human ether-à-go-go-related gene (hERG) potassium channel, sequence (Q12809 whole entry, looked up): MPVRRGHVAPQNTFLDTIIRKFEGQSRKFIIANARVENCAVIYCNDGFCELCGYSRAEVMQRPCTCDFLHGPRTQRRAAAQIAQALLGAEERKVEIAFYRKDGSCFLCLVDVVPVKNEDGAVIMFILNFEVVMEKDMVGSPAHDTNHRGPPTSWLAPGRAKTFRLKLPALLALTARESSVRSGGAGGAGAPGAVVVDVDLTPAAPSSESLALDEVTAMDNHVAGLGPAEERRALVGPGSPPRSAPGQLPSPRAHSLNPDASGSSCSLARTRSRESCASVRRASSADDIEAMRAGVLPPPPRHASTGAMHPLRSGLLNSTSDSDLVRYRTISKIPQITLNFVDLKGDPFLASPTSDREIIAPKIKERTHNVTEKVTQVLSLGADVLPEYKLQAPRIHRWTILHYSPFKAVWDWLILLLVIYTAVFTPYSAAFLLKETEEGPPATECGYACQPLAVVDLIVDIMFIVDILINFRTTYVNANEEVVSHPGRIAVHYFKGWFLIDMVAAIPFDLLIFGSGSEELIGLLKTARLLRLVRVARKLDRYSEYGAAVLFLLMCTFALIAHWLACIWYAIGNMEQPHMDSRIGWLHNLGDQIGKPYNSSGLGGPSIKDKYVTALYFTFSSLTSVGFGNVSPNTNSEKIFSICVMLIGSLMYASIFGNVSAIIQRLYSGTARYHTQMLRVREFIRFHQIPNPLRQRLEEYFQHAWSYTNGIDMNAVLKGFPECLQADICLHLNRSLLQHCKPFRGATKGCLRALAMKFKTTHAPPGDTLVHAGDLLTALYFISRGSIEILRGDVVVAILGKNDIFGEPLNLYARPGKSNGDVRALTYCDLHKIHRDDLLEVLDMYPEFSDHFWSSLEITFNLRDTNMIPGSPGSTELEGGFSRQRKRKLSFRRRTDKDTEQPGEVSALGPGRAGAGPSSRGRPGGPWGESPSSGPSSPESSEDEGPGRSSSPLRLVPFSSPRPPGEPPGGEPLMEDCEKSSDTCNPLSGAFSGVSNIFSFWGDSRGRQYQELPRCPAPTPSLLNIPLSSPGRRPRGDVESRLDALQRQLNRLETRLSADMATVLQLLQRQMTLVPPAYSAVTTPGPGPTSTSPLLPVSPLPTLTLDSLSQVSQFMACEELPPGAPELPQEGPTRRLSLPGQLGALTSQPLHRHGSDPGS

| SMILES | hERG current change (%, negative = inhibition) at 10uM [%] |
| --- | --- |
| O=C(c1coc(=O)c2ccccc12)N1CCN(Cc2ccccc2)CC1 | -51.2 |
| O=c1[nH]c(=S)n(C2CC2)c(O)c1/C=N/Nc1cccc2ccccc12 | 2.93 |
| Cc1ccc(CCNC(=O)c2nn(C)c3c2CS(=O)(=O)c2ccccc2-3)cc1 | -39.7 |
| CCOC(=O)c1sc2nc(C)cc(C)c2c1N | -8.58 |
| COc1ccc(OC)c(S(=O)(=O)Nc2cc3c(cc2N2CCCC2)n(C)c(=O)c(=O)n3C)c1 | -50.7 |
| CCC(Sc1ccc(Cl)cc1)C(=O)Nc1nnc(-c2cccc([N+](=O)[O-])c2)s1 (stereo not shown) | 10.3 |
| CCCc1cc(=O)c2c(O)ccc(OC)c2o1 | 5.18 |
| Fc1cccc2sc(Nc3nc4cc5c(cc4s3)OCO5)nc12 | 20.3 |
| CC(C)(C)NC(=O)C(c1ccsc1)N(CCc1ccccc1)C(=O)Cn1nnc2ccccc21 (stereo not shown) | 7.45 |
| COC(=O)C(CCSC)NC(=O)CNS(=O)(=O)c1ccc(Br)cc1 (stereo not shown) | -12.1 |
| COC(=O)c1sccc1NC(=O)c1c(C)cc(=O)oc1C | 5.16 |
| FC(F)(F)c1ccc(Cl)c(NC2=NCCCCC2)c1 | 13.4 |
| Cc1ccc(-c2noc(CCC(=O)NCCN3CCOCC3)n2)cc1 | 4.65 |
| NC(=O)C1CCN(C(=O)COc2ccc3ccc(=O)oc3c2)CC1 | 3.48 |
| COCCCn1c(=N)c(C(=O)NCc2ccc3c(c2)OCO3)cc2c(=O)n3ccccc3nc21 | -83.5 |
| CCOC(=O)c1c(NC(=O)CC2SC(N)=NC2=O)sc2c1CCCC2 (stereo not shown) | -4.02 |
| CC(Sc1ccsc1[N+](=O)[O-])C(=O)N1CCN(c2ccccn2)CC1 (stereo not shown) | -1.67 |
| COC(=O)C1=CN(C(C)c2ccccc2)C=C(C(=O)OC)C1c1cc(OC)c(OC)c(OC)c1 (stereo not shown) | -10.1 |
| O=C(Nc1cccnc1)c1ccco1 | 19.5 |
| COc1ccc(CCNC(=O)CSCc2ccc(Br)cc2)cc1OC | 4.56 |
| CCOc1ccc(NC(=O)c2ccc(F)c(S(=O)(=O)N3CCN(c4ccccn4)CC3)c2)cc1 | 0.277 |
| NNC(=O)CC12CC3CC(C1)CC(n1ncnn1)(C3)C2 | -15.1 |

| SMILES | hERG current change (%, negative = inhibition) at 10uM [%] |
| --- | --- |
| CCOC(=O)c1[nH]c2ccc(F)cc2c1NC(=O)CCN1CCOCC1 | 3.03 |
| C=CCN(c1ccccc1)S(=O)(=O)c1cccc(C(=O)NNC(=O)c2ccccc2O)c1 | -3.7 |
| COC(=O)CNC(=O)c1sc2ncn(CC(=O)Nc3ccc(C)c(Cl)c3)c(=O)c2c1C | -0.953 |
| COc1ccc(NS(=O)(=O)N2CCOCC2)cc1 | 13.8 |
| N=c1ncn(Cc2ccccc2)c2nc(SCCOc3ccccc3)[nH]c12 | -6.87 |
| CC(=O)NC1=NN(C(C)=O)C(C)(CC(=O)OC(C)(C)C)S1 (stereo not shown) | 8.32 |
| CCCN1C(=O)c2ccccc2NC1c1ccc(Cl)cc1 (stereo not shown) | -7.23 |
| O=C(c1cc2c(=O)oc3ccccc3c2s1)N1CCOCC1 | -0.51 |
| Cc1ccc(NC(=S)Nc2ccc3[nH]c(=O)[nH]c3c2)cc1C | 17.1 |
| Cc1sc(NC(=O)c2ccccc2)c(C(=O)c2ccccc2)c1C | 3.34 |
| CCOc1ccccc1C(=O)N1CCCCC1C (stereo not shown) | 17.6 |
| COc1ccc(S(=O)(=O)Nc2c(C)n(C)n(-c3ccccc3)c2=O)cc1C(=O)O | 17.2 |
| O=C(Nc1cc(Br)ccc1O)C1CC(c2ccccc2Cl)=NO1 (stereo not shown) | 19.5 |
| Cc1nnc(NC(=O)CSc2nnc(Cc3cccn3C)n2-c2ccccc2)s1 | 1 |
| Cc1cc2nc(C(C)(C)C)cc(N)n2n1 | 0.227 |
| CC1(C)N=C(/C=N/O)C=[N+]1[O-] | 6.34 |
| Cc1cc2c(s1)CCCCC(=O)N2 | 5.42 |
| CC1CCCN(Cc2c(C(=O)N3CCc4ccccc4C3)nc3ccc(Cl)cn23)C1 (stereo not shown) | -34.5 |
| Cc1ccc(-c2csc3nc4cc(C(N)=O)ccc4c(=O)n23)cc1 | -4.13 |
| CC1(C)CC(=O)C=C(Nc2ccc(Br)cc2F)C1 | 1.23 |
| Cc1occc1-c1nnc(SCC(=O)N2CCOCC2)o1 | 4.92 |
| COCC(=O)Nc1nnc(SCC(=O)NCc2cccs2)s1 | 7.54 |

| SMILES | hERG current change (%, negative = inhibition) at 10uM [%] |
| --- | --- |
| NC(=S)N/N=C/c1ccccc1OC(=O)/C=C/c1ccccc1 | -0.227 |
| COc1ccc(NC(=O)c2sccc2C)c([N+](=O)[O-])c1 | 13.2 |
| Cc1cccc(OCC(=O)NCC(=O)N/N=C/c2c(C)[nH]c3ccccc23)c1 | -4.32 |
| Cc1nn(CC(C)C)c(=S)[nH]c1=O | -2.44 |
| CCOC(=O)/C(=N/Nc1ccccc1)Sc1nnnn1-c1ccc(C)cc1 | 1.3 |
| COC(=O)c1cccc(NC(=O)CSc2nnc(C)n2Cc2ccccc2)c1 | -15.2 |
| Cc1ccc(C)c(NC(=O)CN(C)C(=O)c2ccncc2)c1 | 12.7 |
| COc1ccc(-c2noc(CNC(=O)c3ccc4c(c3)OCO4)n2)cc1OC | 11.9 |
| CCOC(=O)COc1cc(Br)c(C2NC(=O)NC(C)=C2C(C)=O)cc1OCC (stereo not shown) | 15.7 |
| COc1cc(NS(=O)(=O)c2ccc(NC(=O)/C=C/c3cccc([N+](=O)[O-])c3)cc2)ncn1 | 7.27 |
| Cc1ccc(-c2nc3ccccc3c(=O)n2NC(=O)c2cccs2)cc1 | 4.29 |
| CCN(CC)CCN1C(=O)C(=O)/C(=C(/O)c2c(C)[nH]c(C(=O)OC)c2C)C1c1cccc(OC)c1 (stereo not shown) | -0.157 |
| O=C(Nc1ccc(Cl)cn1)C1COc2ccccc2O1 (stereo not shown) | 14.2 |
| CCCC(C(=O)NCCC(C)C)N(Cc1ccccc1Cl)C(=O)c1snc(C(N)=O)c1N (stereo not shown) | 0.597 |
| O=C1/C(=C\Nc2ccccc2)CCN1c1ncccn1 | 5.84 |
| Cc1cc2nc(C)c3c(n2n1)CCC3 | 16.3 |
| COc1ccc(OCC(=O)c2c(O)c3ccccc3oc2=O)cc1 | -12.4 |
| CC(=O)N1CCc2cc(S(=O)(=O)CCC(=O)N3CCN(c4ccccc4F)CC3)ccc21 | 6.13 |
| Cn1ccnc1C(=O)c1cc(SCC(=O)NC2CC2)nc2ccccc12 | 19 |
| CCOc1ccc(/C=N/OCC(=O)NCc2cccs2)cc1 | -11.6 |
| CN(CCc1cnn(C)c1)Cc1cn(C)nc1-c1ccc2c(c1)OCCO2 | 5.94 |
| CNC[C@@H](Cc1ccccc1)NC[C@@H](CC1CCCCC1)NCCCc1ccccc1 | -2.64 |

| SMILES | hERG current change (%, negative = inhibition) at 10uM [%] |
| --- | --- |
| CC(=O)c1ccc(S(=O)(=O)N2CCCC(N(C)CCc3ccccn3)C2)cc1 (stereo not shown) | -65.3 |
| O=C(CSCC(=O)OCC(=O)c1ccc(Br)cc1)Nc1ccc(Br)cc1 | 3.17 |
| CC(C)C[C@H](NC(=O)c1[nH]cnc1C(=O)Nc1ccc(Cl)cc1)C(=O)OC(C)(C)C | 21.2 |
| CCOc1ccc(NC(=O)CN(C)C(=O)c2cc([N+](=O)[O-])ccc2N2CCOCC2)cc1OCC | -52.5 |
| O=C(O)C(=O)O.O=C(c1cccnc1)N1CCN(Cc2cccc(Br)c2)CC1 | -18 |
| CC1CCN(S(=O)(=O)c2ccc3c(c2)n(C)c(=O)n3C)CC1 | -14.6 |
| CN(C)S(=O)(=O)c1cccc(NC(=O)CSc2nncn2-c2ccccc2)c1 | -6.41 |
| O=C(c1ccco1)[C@@H]1[C@@H]2C(=O)N(c3ccc(F)cc3)C(=O)[C@@H]2C2c3ccccc3C=CN21 (stereo partly shown) | 5.7 |
| Cc1ccc(/C=C2\SC(=S)N(CCC(=O)NNC(=O)c3cccc(O)c3)C2=O)cc1 | 10.3 |
| CC1=CC(C)(C)N(C(=O)C(C)N2C(=O)c3ccccc3C2=O)c2ccc(C)cc21 (stereo not shown) | 2.88 |
| CC(C)NC(=O)CC(=O)N/N=C/c1ccc(Br)cc1 | -3.25 |
| COc1ccc(OC)c(Cc2nnc(CCC(=O)NC3CCCCC3)o2)c1 | 21.4 |
| Cc1nn(CC(=O)Nc2ccc(C(=O)N3CCCCC3)cc2)c(=O)c2ccccc12 | -9.2 |
| Cc1nn(-c2ccccc2)c2[nH]c(C(F)(F)F)cc(=O)c12 | -12.5 |
| COc1ccc(N2CCN(S(=O)(=O)c3ccc4c(c3)NC(=O)C(C)C(=O)N4)CC2)cc1 (stereo not shown) | 9.78 |
| COCCNC(=S)N/N=C/c1c(C)[nH]c2ccccc12 | -0.503 |
| COc1cc(C2C(C#N)=C(N)Oc3cc(O)ccc32)cc2c1OCO2 (stereo not shown) | -17.6 |
| CC1CC(CC(C)C(=O)NC(=S)Nc2ccc(S(N)(=O)=O)cc2)C(=O)O1 (stereo not shown) | 17.1 |
| Cc1oc(-c2ccccc2)nc1CSc1nc2c(c(=O)[nH]1)CCC2 | -2.57 |
| CCCOc1ccc2c(c1)C(=NN=C(N)N)c1cc(OCCC)ccc1-2.Cl | 24.2 |
| COc1ccc(OC)c(NC(=O)CCCNC(=O)Cn2cnc3sc(C)c(C)c3c2=O)c1 | 7.6 |
| CCN(CC(=O)Nc1c(F)cccc1F)C(=O)C1CCN(C(=O)c2ccc(Cl)cc2)CC1 | -17.6 |

From PMC4336329 (PLoS ONE, 2015)
